# From PubChem BioAssay (NCATS)
# “And” between values parts separate entries of the source, which are not always exact repeats. Identical values can stand only once. The shares of active, inactive and inconclusive entries below differ from those in the screen. For part of these data: A potency beside an inconclusive call is a rough fit, not a confirmed value. The source made the active and inactive calls. Calls come from the whole dose curve; as a rule, active = well fitted curve in the direction sought with a large enough effect; inconclusive = small, poorly fitted or top-dose-only effect, or another doubt; inactive = no such curve, though single readings can be large; an effect the other way counts as inactive or inconclusive.
# How the values were obtained:
# [1] = test system: Zika virus NS2B-NS3 protease; test: Primary screen GU AMC qHTS for Zika virus inhibitors (AID 1347154); note: nearly all actives have a fitted effect of over 70% in size; note: potency is the fitted concentration of half-maximal effect
# Procedure, shortened: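 Unlinked Zika NS2B hydrophilic domain–NS3 protease complex at 25 nM in 10 mM Tris-HCl pH 8.0, 0.01% Tween 20, with an AMC peptide substrate. Fluorescence change (340/450 nm) over 15 min at room temperature, normalized to controls, fitted to 4-parameter Hill.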
# [2] = ZIKV-mCherry secondary qHTS for Zika virus inhibitors (AID 1347158); note: potency is the fitted concentration of half-maximal effect
# Procedure, shortened: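 Percent infection is the share of Hoechst-identified Vero nuclei with mCherry signal above 450 RFU (3 SD over negative controls). Cells were infected with recombinant ZIKV-mCherry at MOI 1 after compound addition and imaged 48–72 h later.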
# [3] = test system: Zika virus NS2B-NS3 protease (linked); test: 384 well plate NINDS AMC confirmatory qHTS for Zika virus inhibitors (AID 1347163); note: nearly all actives have a fitted effect of over 50% in size; note: potency is the fitted concentration of half-maximal effect
# Procedure, shortened: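 Fluorescence at 355/460 nm was read after 25 minutes of cleavage of 30 microM Ac-VKTGKR-AMC at room temperature, in the dark. Before substrate addition, compounds (up to 1 mM final) sat ~15 minutes with 5, 30 or 60 nM linked protease. Signals were normalized to no-enzyme and no-inhibitor wells.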
# [4] = test system: Zika virus NS2B-NS3 protease (linked construct); test: 384 well plate NINDS Rhodamine confirmatory qHTS for Zika virus inhibitors (AID 1347164);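 note: fluorescence from protease cleavage of Ac-LKRR-rhodamine 110 substrate; potency is the fitted concentration of half-maximal effect; nearly all actives have a fitted effect of over 65% in size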
# Procedure, shortened: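 Fluorescence read at ex 485 nm/em 538 nm, 25 min after adding 10 microM Ac-LKRR-Rd substrate at room temperature in the dark; signal normalized to no-enzyme and no-inhibitor controls. Enzyme final 5, 30 or 60 nM; compounds, ~15 min preincubation.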
# [5] = Tertiary RLuc qRT-PCR qHTS assay for Zika virus inhibitors (AID 1347169); note: potency is the fitted concentration of half-maximal effect; nearly all actives have a fitted effect of over 55% in size
# Procedure, shortened: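 Luminescence read-out: live-cell Renilla luciferase substrate applied to infected Vero cells, signal measured after 1-1.5 hrs. Cells had received compound before ZIKV-RLuc (Cambodian strain, MOI 1-2) infection and were incubated 48-72 hrs at 37 degrees C.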
# [6] = Vero cells viability qHTS for Zika virus inhibitors (AID 1347167); conditions: cytotoxicity counter-screen (Zika); note: potency is the fitted concentration of half-maximal effect
# Procedure, shortened: (§1)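 qHTS titration; 24-48 h compound exposure, 37 degrees C/5% CO2; DMEM, 4% FBS; CellTiter Glo ATP luminescence.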
# [7] = HPAF-II Cancer Cell Toxicity qHTS against the NCATS CANVASS Library (AID 1347346); conditions: HPAF-II viability, CellTiter-Glo ATP luminescence, 72 h; at 38.3 µM (top of the series); note: % is set by controls: 0 for no effect and ±100 for the full control effect; nearly all actives have a fitted effect of over 55% in size
# Procedure, shortened: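 Cytotoxicity read-out was CellTiter-Glo luminescence after 72 h at 37 degrees C exposure of HPAF-II cells (1000/well) to compounds in an 11-point titration.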
# [8] = Panc-1005 Cancer Cell Toxicity qHTS against the NCATS CANVASS Library (AID 1347349); conditions: Panc-1005 viability, CellTiter-Glo luminescence, 72 h; at 38.3 µM (top of the series); note: % is set by controls: 0 for no effect and ±100 for the full control effect; nearly all actives have a fitted effect of over 60% in size
# Procedure, shortened: (§2)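 Step one: seed 1000 cells per well. Step two: incubate 4 h. Step three: add test compounds in 11 concentrations. Step four: culture 72 h, then add CellTiter-Glo and record luminescence after 15min.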
# [9] = SW1088 Cancer Cell Toxicity qHTS against the NCATS CANVASS Library (AID 1347350); conditions: SW1088 viability, CellTiter-Glo luminescence, 72 h; note: potency is the fitted concentration of half-maximal effect; nearly all actives have a fitted effect of over 75% in size
# Procedure, shortened: as §2
# [10] = A2780 Cisplatin Sensitive Ovarian Cancer Cell Toxicity qHTS against the NCATS CANVASS Library (AID 1347353); conditions: A2780 ovarian cancer viability, ATPLite luminescence, 72 h; at 46.1 µM (top of the series); note: nearly all actives have a fitted effect of over 60% in size
# Procedure, shortened: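 Cisplatin-sensitive A2780 ovarian cells (750/well) received compound in 11 concentrations, and were incubated 72 h at 37 °C. ATP content was measured by ATPLite luminescence; bortezomib served as control.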
# [11] = target: Lysine-specific demethylase 5B (Homo sapiens) (UniProt Q9UGL1); test: Optimization screen for KDM5B Histone Demethylases FDH coupled qHTS against the LOPAC library (AID 1347166); note: potency is the fitted concentration of half-maximal effect
# Procedure, shortened: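 KDM5BDeltaAP (200nM final) in 50mM HEPES pH 7.5, 0.01% Tween-20 was preincubated with compound for 10 min at room temperature. A substrate mix of 12.5uM H3K4Me3, 25uM a-ketoglutarate, ascorbate, Fe2+, NAD+ and formaldehyde dehydrogenase was then added. NADH fluorescence (340/450 nm) was read initially and after 30 min.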
# [12] = HepG2 cells viability qHTS for Zika virus inhibitors (AID 1347168); note: potency is the fitted concentration of half-maximal effect
# Procedure, shortened: as §1
# Tags give direction and shape of the fitted curve.
# Sequence of UniProt Q9UGL1 (Q9UGL1 whole entry, looked up): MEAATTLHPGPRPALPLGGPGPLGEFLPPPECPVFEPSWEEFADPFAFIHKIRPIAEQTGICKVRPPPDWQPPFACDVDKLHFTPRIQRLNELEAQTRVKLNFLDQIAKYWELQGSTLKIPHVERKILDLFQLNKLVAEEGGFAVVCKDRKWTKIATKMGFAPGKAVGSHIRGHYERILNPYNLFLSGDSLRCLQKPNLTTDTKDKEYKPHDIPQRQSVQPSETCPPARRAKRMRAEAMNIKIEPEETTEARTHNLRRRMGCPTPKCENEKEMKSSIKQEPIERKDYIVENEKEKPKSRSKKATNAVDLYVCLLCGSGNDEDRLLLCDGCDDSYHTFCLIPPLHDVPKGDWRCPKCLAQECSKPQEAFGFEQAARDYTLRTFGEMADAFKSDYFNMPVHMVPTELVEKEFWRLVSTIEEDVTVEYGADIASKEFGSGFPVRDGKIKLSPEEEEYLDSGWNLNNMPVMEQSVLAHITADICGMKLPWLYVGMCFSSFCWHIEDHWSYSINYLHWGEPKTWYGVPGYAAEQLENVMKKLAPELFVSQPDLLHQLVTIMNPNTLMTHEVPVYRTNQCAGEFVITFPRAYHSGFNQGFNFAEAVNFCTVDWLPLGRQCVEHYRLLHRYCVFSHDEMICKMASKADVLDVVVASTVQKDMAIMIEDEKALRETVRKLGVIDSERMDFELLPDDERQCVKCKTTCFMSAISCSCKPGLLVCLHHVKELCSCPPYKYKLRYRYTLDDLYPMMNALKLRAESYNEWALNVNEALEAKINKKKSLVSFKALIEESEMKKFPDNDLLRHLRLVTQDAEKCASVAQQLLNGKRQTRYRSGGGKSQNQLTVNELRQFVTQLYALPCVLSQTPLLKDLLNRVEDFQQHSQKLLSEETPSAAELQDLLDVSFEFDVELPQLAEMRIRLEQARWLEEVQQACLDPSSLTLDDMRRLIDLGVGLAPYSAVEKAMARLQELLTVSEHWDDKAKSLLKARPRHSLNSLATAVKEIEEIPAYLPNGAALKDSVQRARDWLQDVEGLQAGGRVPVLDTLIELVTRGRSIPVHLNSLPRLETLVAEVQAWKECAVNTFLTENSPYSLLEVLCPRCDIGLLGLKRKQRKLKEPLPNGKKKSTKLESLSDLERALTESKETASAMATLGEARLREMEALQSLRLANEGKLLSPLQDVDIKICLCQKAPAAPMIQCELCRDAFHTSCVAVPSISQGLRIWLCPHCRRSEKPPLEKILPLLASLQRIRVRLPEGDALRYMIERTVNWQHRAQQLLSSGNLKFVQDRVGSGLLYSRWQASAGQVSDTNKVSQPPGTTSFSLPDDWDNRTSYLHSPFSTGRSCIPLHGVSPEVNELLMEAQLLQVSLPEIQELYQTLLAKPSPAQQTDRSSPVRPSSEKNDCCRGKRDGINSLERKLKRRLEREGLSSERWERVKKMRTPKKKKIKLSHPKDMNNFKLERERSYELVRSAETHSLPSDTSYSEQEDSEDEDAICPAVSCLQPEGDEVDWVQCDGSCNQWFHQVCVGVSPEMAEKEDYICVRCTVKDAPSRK
smiles,measurement,setting,value
O[C@@H](COc1cccc2ncccc12)CN1CCN(C2c3ccccc3[C@@H]3[C@H](c4ccccc42)C3(F)F)CC1 (some centres not stated),Potency,[1],"inconclusive: 10 µM [inhibitor, partial curve, poor fit]"
CCOCCOC(=O)/C=C/c1ccc(OC)cc1,Potency,[1],"inconclusive: 0.0447 µM [inhibitor, full curve, poor fit]"
Oc1cccc(-c2c3nc(c(-c4cccc(O)c4)c4ccc([nH]4)c(-c4cccc(O)c4)c4nc(c(-c5cccc(O)c5)c5ccc2[nH]5)CC4)C=C3)c1,Potency,[1],"inconclusive: 32.2 µM [inhibitor, partial curve]"
same,Potency,[2],inactive
same,Potency,[3],active: 3.16 µM
same,Potency,[4],"inconclusive: 2.82 µM [inhibitor, full curve, poor fit]"
same,Potency,[5],"inconclusive: 5.62 µM [inhibitor, single point]"
COc1cc2nc(N3CCN(C(=O)C4CCCO4)CC3)nc(N)c2cc1OC (configuration not stated),Potency,[1],active: 31.6 µM and active: 24.1 µM
CC(C)c1ccc2c(c1)c(SC(C)(C)C)c(CC(C)(C)C(=O)O)n2Cc1ccc(Cl)cc1,Potency,[1],"inconclusive: 7.64 µM [inhibitor, partial curve]"
same,Potency,[2],"inconclusive: 6.31 µM [inhibitor, full curve, poor fit]"
same,Potency,[4],active: 14.1 µM
same,Potency,[6],"inconclusive: 33 µM [cytotoxic, single point]"
same,Potency,[5],"inconclusive: 8.29 µM [inhibitor, full curve]"
O=C1c2ccccc2C(=O)c2c1ccc(O)c2O,Potency,[1],"inconclusive: 32.2 µM [inhibitor, partial curve]"
O=c1c(O)c(-c2ccc(O)c(O)c2)oc2cc(O)ccc12,Potency,[1],active: 17.1 µM
same,Potency,[2],inactive
same,Potency,[3],inactive
same,"activity change, negative = cytotoxicity",[7],inactive: -0.547%
same,"activity change, negative = cytotoxicity",[8],inactive: 21.5%
same,Potency,[9],"inconclusive: 23.7 µM [cytotoxic, single point]"
same,outcome,[10],inactive
Cc1nc(-c2ccc(OCC(C)C)c(C#N)c2)sc1C(=O)O,Potency,[1],"active: 21.5 µM and inconclusive: 28.7 µM [inhibitor, partial curve]"
O=C1C[C@@H](c2ccc(O)cc2)Oc2cc(O)cc(O)c21,Potency,[1],"inconclusive: 24.1 µM [inhibitor, partial curve, poor fit]"
CC(C)(C)c1ccc(C(=O)CCCN2CCC(OC(c3ccccc3)c3ccccc3)CC2)cc1,Potency,[1],"inconclusive: 10 µM [inhibitor, full curve, poor fit]"
CCCCCCCC(=O)[O-].CCCCCCCC(=O)[O-].[Zn+2],Potency,[1],inactive
Cc1c(NC(=O)c2ccc(C(C)(C)C)cc2)cccc1-c1cn(C)c(=O)c(Nc2ccc(C(=O)N3CCOCC3)cc2)n1,Potency,[1],"inconclusive: 30.4 µM [inhibitor, single point]"
COc1ccc2c3c1OC1C[C@@H](O)C=C[C@@]31CCN(C)C2 (some centres not stated),Potency,[1],inactive
CNS(=O)(=O)CCc1ccc2[nH]cc(C3CCN(C)CC3)c2c1,Potency,[1],"inconclusive: 9.61 µM [inhibitor, single point]"
CC[C@]1(O)C[C@H]2CN(CCc3c([nH]c4ccccc34)[C@@](C(=O)OC)(c3cc4c(cc3OC)N(C=O)[C@H]3[C@@](O)(C(=O)OC)[C@H](OC(C)=O)[C@]5(CC)C=CCN6CC[C@]43[C@@H]65)C2)C1,Potency,[1],inactive
C#CC1(O)CC[C@H]2[C@@H]3CCC4=CCCC[C@@H]4[C@H]3CC[C@@]21C (some centres not stated),Potency,[1],"inconclusive: 31.6 µM [inhibitor, partial curve]"
Cc1ccc(C)c(OCCCC(C)(C)C(=O)O)c1,Potency,[1],inactive
O=c1c2ccccc2nc2n1CCc1c-2[nH]c2ccccc12,Potency,[1],active: 30.4 µM
same,Potency,[2],"inconclusive: 4.47 µM [inhibitor, full curve, poor fit]"
same,Potency,[3],inactive
same,Potency,[4],active: 56.2 µM
same,Potency,[11],"inconclusive: 25.1 µM [inhibitor, partial curve, poor fit]"
same,Potency,[12],"inconclusive: 26.2 µM [cytotoxic, single point]"
same,Potency,[5],"inconclusive: 18.6 µM [inhibitor, partial curve]"
CN1CCN(c2cc3c(nn2)Oc2ccccc2N3C)CC1,Potency,[1],active: 9.89 µM
CO[C@H]1C=CC=C(C)C(=O)NC2=CC(=O)C(NCCN(C)C)=C(C[C@@H](C)C[C@H](OC)[C@@H](O)[C@@H](C)C=C(C)[C@@H]1OC(N)=O)C2=O,Potency,[1],"inconclusive: 24.1 µM [inhibitor, partial curve]"
NC1CCC(Nc2nc(Nc3ccc(C(=O)N4CCCCC4)cc3)c3ncn(-c4cccc(F)c4)c3n2)CC1 (configuration not stated),Potency,[1],inactive
CC(C)c1ccc2oc3nc(N)c(C(=O)O)cc3c(=O)c2c1,Potency,[1],"inconclusive: 3.83 µM [inhibitor, partial curve, poor fit] and active: 15.8 µM"
